The other results are listed elsewhere or left out.
What was measured:
[1] = tested on: HSkMC (human skeletal muscle cells); test: cytotoxicity call (relative viability < 0.9); conditions: 10 µM
[2] = tested on: HepG2; test: cytotoxicity call (relative viability < 0.9); conditions: 10 µM
[3] = tested on: S. aureus RN4220; test: growth inhibition call (relative growth <= 0.2); conditions: 50 µM

Structure (SMILES)	cytotoxicity call [1]	cytotoxicity call [2]	growth inhibition call [3]
C[C@H](CO)N1C[C@H](C)[C@@H](CN(C)Cc2ccccc2)Oc2ccc(NC(=O)Cn3cnnn3)cc2CC1=O	inactive	inactive	inactive
C=CCOC(=O)[C@H]1[C@@H]2C(=O)O[C@@H](c3ccccc3)[C@@H](c3ccccc3)N2[C@@H](c2ccc(OCCOC(=O)[C@H]3C[C@H]4C(=O)N5CCC[C@H]5C(=O)N4[C@H]3c3cccc(OCCO)c3)cc2)[C@]12C(=O)Nc1ccc(I)cc12	inactive	inactive	inactive
C[C@@H]1CCCCO[C@H](CN(C)Cc2ccc(C(=O)O)cc2)[C@H](C)CN([C@H](C)CO)C(=O)c2cc(NS(=O)(=O)c3ccc(F)cc3)ccc2O1	inactive	inactive	inactive
O=C(C[C@@H]1CC[C@@H]2[C@H](COC[C@@H](O)CN2S(=O)(=O)c2ccc(Cl)cc2)O1)NCc1ccncn1	inactive	inactive	inactive
Cc1c(N)nc([C@H](CC(N)=O)NC[C@H](N)C(N)=O)nc1C(=O)N[C@H](C(=O)N[C@H](C)[C@@H](O)[C@H](C)C(=O)N[C@H](C(=O)NCCc1nc(-c2nc(C(=O)NCCCNCCCCN)cs2)cs1)[C@@H](C)O)[C@@H](O[C@@H]1O[C@@H](CO)[C@@H](O)[C@H](O)[C@@H]1O[C@@H]1O[C@H](CO)[C@@H](O)[C@H](OC(N)=O)[C@@H]1O)c1c[nH]cn1	active	inactive	active
O=C(CCCCCCC(=O)N/N=C/[C@@H](O)[C@@H](O)[C@H](O)[C@H](O)CO)NO	inactive	inactive	inactive
CCOC(=O)C(CCc1ccccc1)NC(C)C(=O)N1CCCC1C(=O)O.O=C(O)C=CC(=O)O (stereo not given)	inactive	inactive	inactive
Cc1cc(C(=O)Nc2cccc3c2O[C@@H](CN(C)S(=O)(=O)c2cn(C)cn2)[C@H](C)CN([C@@H](C)CO)C3=O)n(C)n1	inactive	inactive	inactive
C[C@H](CO)N1C[C@H](C)[C@@H](CN(C)S(=O)(=O)c2ccc(F)cc2)Oc2ccc(NC(=O)CCN3CCOCC3)cc2C1=O	inactive	inactive	inactive
CC(C)NC(=O)Nc1ccc2c(c1)C(=O)N([C@H](C)CO)C[C@H](C)[C@@H](CN(C)S(=O)(=O)c1ccc(F)cc1)O2	inactive	inactive	inactive
COc1ccc(C(=O)O)cc1	inactive	inactive	inactive
O=C(O)c1ccc(CCO)s1	inactive	inactive	inactive
Cc1noc(C)c1S(=O)(=O)Nc1cccc2c1O[C@H](CN(C)C(=O)NC1CCCCC1)[C@H](C)CN([C@@H](C)CO)C2=O	inactive	inactive	inactive
NC(=O)NCC#Cc1ccc2c(c1)[C@]1(C(=O)N2)[C@H](c2ccccc2OCCO)N2[C@H](c3ccccc3)[C@H](c3ccccc3)OC(=O)[C@H]2[C@@H]1C(=O)Nc1nc2ccccc2s1	inactive	inactive	inactive
Cc1ccc(S(=O)(=O)Nc2ccc3c(c2)C(=O)N([C@@H](C)CO)C[C@H](C)[C@@H](CN(C)S(C)(=O)=O)OCCCC[C@@H](C)O3)cc1	inactive	inactive	inactive
C[C@H](CO)N1C[C@H](C)[C@H](CN(C)C(=O)Nc2ccc3c(c2)OCO3)Oc2c(NC(=O)c3ccncc3)cccc2C1=O	inactive	inactive	inactive
CCO[C@@H]1OC(C(=O)N2CCOCC2)=C[C@H](c2ccccc2)[C@H]1CCCOC(=O)NCCCCCC(=O)NO	inactive	inactive	inactive
C[C@H]1CCCCO[C@H](CN(C)Cc2ccc(C(F)(F)F)cc2)[C@@H](C)CN([C@@H](C)CO)C(=O)c2cc(NC(=O)Nc3ccc4c(c3)OCO4)ccc2O1	inactive	active	inactive
C[C@@H]1CN([C@@H](C)CO)S(=O)(=O)c2ccc(-c3cccnc3)cc2O[C@@H]1CN(C)C(=O)c1cccc(F)c1	inactive	inactive	inactive
Cc1ccc(S(=O)(=O)N(C)C[C@H]2Oc3ccc(NC(=O)Nc4cccc5ccccc45)cc3C(=O)N([C@H](C)CO)C[C@@H]2C)cc1	inactive	inactive	inactive
Cc1noc(C)c1NC(=O)Nc1ccc2c(c1)C(=O)N([C@H](C)CO)C[C@H](C)[C@@H](CN(C)C(=O)Nc1ccccc1)OCCCC[C@@H](C)O2	inactive	inactive	inactive
CCN(CC)C(=O)C1(c2ccccc2)CC1CN.Cl (stereo not given)	inactive	inactive	inactive
C[C@H](CO)N1C[C@H](C)[C@H](CN(C)Cc2ccccc2)Oc2cc(C#CC(C)(C)O)ccc2S1(=O)=O	inactive	inactive	inactive
C[C@H](CO)N1C[C@H](C)[C@H](CN(C)S(=O)(=O)c2ccc(Cl)cc2)Oc2ccc(NC(=O)Nc3ccc(C(F)(F)F)cc3)cc2C1=O	active	active	inactive
CNC(=O)c1cc(S(=O)(=O)N(C)C[C@@H]2Oc3ccc(NC(=O)Nc4ccc(C#N)cc4)cc3CC(=O)N([C@@H](C)CO)C[C@@H]2C)cs1	inactive	inactive	inactive

Structure (SMILES)	cytotoxicity call [1]	cytotoxicity call [2]	growth inhibition call [3]
COc1ccc(NC(=O)Nc2ccc3c(c2)C(=O)N([C@@H](C)CO)C[C@H](C)[C@H](CN(C)S(=O)(=O)c2ccc(C)cc2)OCCCC[C@@H](C)O3)cc1	inactive	inactive	inactive
C[C@H](CO)N1C[C@H](C)[C@@H](CN(C)Cc2cccnc2)Oc2cc(C#CCN(C)C)ccc2S1(=O)=O	inactive	inactive	inactive
C[C@H](CO)N1C[C@H](C)[C@@H](CN(C)C(=O)Nc2ccc(F)cc2)OCCCC[C@H](C)Oc2ccc(NC(=O)c3ccccc3)cc2C1=O	inactive	inactive	inactive
CC(C)NC(=O)Nc1ccc2c(c1)CC(=O)N([C@@H](C)CO)C[C@H](C)[C@H](CN(C)S(=O)(=O)c1ccc(Cl)cc1)O2	inactive	inactive	inactive
C[C@H]1CN([C@@H](C)CO)C(=O)c2cccc(NC(=O)Nc3ccc4c(c3)OCO4)c2O[C@@H]1CN(C)C(=O)Nc1cccc2ccccc12	inactive	inactive	inactive
C[C@@H]1CN([C@@H](C)CO)S(=O)(=O)c2ccc(Br)cc2O[C@@H]1CN(C)S(=O)(=O)c1ccccc1	inactive	inactive	inactive
C[C@@H]1CN([C@@H](C)CO)C(=O)c2cc(NC(=O)NC3CCCCC3)ccc2O[C@@H](C)CCCCO[C@@H]1CN(C)C(=O)NC1CCCCC1	inactive	inactive	inactive
Cc1noc(C)c1NC(=O)N(C)C[C@H]1OCCCC[C@H](C)Oc2ccc(NS(=O)(=O)c3cccs3)cc2C(=O)N([C@@H](C)CO)C[C@@H]1C	inactive	inactive	inactive
COc1ccc2[nH]cc(CCNC(C)=O)c2c1	inactive	inactive	inactive
C[C@H](CO)N1C[C@H](C)[C@@H](CN(C)CC2CCCCC2)Oc2ccc(NC(=O)Cn3cnnn3)cc2C1=O	inactive	inactive	inactive
COc1ccc(S(=O)(=O)N2C[C@@H](O)COC[C@H]3O[C@@H](CC(=O)NCCCN(C)C)CC[C@@H]32)cc1	inactive	inactive	inactive
COCC#Cc1cnc2c(c1)C(=O)N([C@@H](C)CO)C[C@@H](C)[C@@H](CN(C)C(=O)CCN1CCCCC1)O2	inactive	inactive	inactive
C[C@@H]1CCCCO[C@H](CN(C)Cc2ccccc2)[C@H](C)CN([C@H](C)CO)C(=O)c2cc(NC(=O)NC3CCCCC3)ccc2O1	inactive	inactive	inactive
C[C@@H]1CN([C@H](C)CO)C(=O)c2cc(NC(=O)c3ccncc3)ccc2O[C@H]1CN(C)S(=O)(=O)c1ccccc1	inactive	inactive	inactive
Clc1ccc(C(c2ccc(Cl)cc2)[n+]2ccn(C[C@@H](OCc3ccc(Cl)cc3Cl)c3ccc(Cl)cc3Cl)c2)cc1	active	active	inactive
Cc1noc(C)c1NC(=O)Nc1ccc2c(c1)C(=O)N([C@@H](C)CO)C[C@H](C)[C@H](CN(C)S(=O)(=O)c1ccc(Cl)cc1)OCCCC[C@@H](C)O2	inactive	inactive	inactive
Cc1noc(C)c1S(=O)(=O)N(C)C[C@H]1Oc2ccc(NS(=O)(=O)c3ccc(F)cc3)cc2C(=O)N([C@H](C)CO)C[C@H]1C	inactive	inactive	inactive
C[C@@H]1CN([C@@H](C)CO)C(=O)c2cc(NC(=O)Nc3ccc(F)cc3)ccc2O[C@@H](C)CCCCO[C@@H]1CN(C)CC1CCCCC1	active	active	inactive
C[C@H]1CN([C@@H](C)CO)C(=O)Cc2cc(NC(=O)Nc3cccc4ccccc34)ccc2O[C@@H]1CN(C)C(=O)Nc1ccccc1	inactive	inactive	inactive
Cc1noc(C)c1S(=O)(=O)Nc1ccc2c(c1)CC(=O)N([C@@H](C)CO)C[C@@H](C)[C@H](CN(C)S(=O)(=O)c1ccccc1)O2	inactive	inactive	inactive
C[C@H](CO)N1C[C@H](C)[C@H](CN(C)Cc2cncnc2)Oc2cc(-c3ccccc3F)ccc2S1(=O)=O	inactive	inactive	inactive
CN(C)[C@@H]1C(=O)[C@@H](C(N)=O)C(=O)[C@@]2(O)C(=O)[C@H]3C(=O)c4c(O)ccc(Cl)c4[C@@H](O)[C@H]3C[C@@H]12	inactive	inactive	active
C[C@@H]1CN([C@H](C)CO)C(=O)c2cc(NC(=O)Nc3ccc4c(c3)OCO4)ccc2O[C@H]1CN(C)C(=O)Nc1ccc(C(F)(F)F)cc1	inactive	inactive	inactive
Cc1noc(C)c1S(=O)(=O)Nc1cccc2c1O[C@@H](CN(C)Cc1ccc3c(c1)OCO3)[C@@H](C)CN([C@H](C)CO)C2=O	inactive	inactive	inactive
Cc1ccc(S(=O)(=O)N(C)C[C@@H]2Oc3c(NC(=O)C4CC4)cccc3C(=O)N([C@@H](C)CO)C[C@@H]2C)cc1	inactive	inactive	inactive

Source: the antibiotic and cytotoxicity screens of Wong et al. (2023)
